# Laboratory results: the supplement of paper PMC12645437, “Orthogonal IMiD-Degron Pairs Induce Selective Protein Degradation in Cells” (ACS Chemical Biology, 2025)
# The list shows a part of the results.
# Biological target: no compound (DMSO)
# Assay: log2 fold change of degron read counts, EGFP-low vs EGFP+ sorted cells; higher = lower degron-EGFP level without compound (poor expression or instability)
# Conditions: compound: DMSO control; 18 h
# 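Further: jurkat cells carrying a lentiviral library of mutant zinc finger degrons fused to EGFP plus mCherry, mCherry+ cells FACS sorted, degron abundance counted by next-generation sequencing.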
row,Sequence,log2 fold change of degron read counts
1,FNCDQCGAWFTQKGNLLRHIKL,-0.19
2,LHCEICGFSCTQKGNLLRHIKL,-0.358
3,FWCPICGARFTQKGNLLRHIKL,0.128
4,FICPICGASFTQKGNLLRHIKL,-0.299
5,FSCPICGHKFTQKGNLLRHIKL,-0.447
6,FLCPICGHNFTQKGNLLRHIKL,0.529
7,FICPICGHPFTQKGNLLRHIKL,-0.681
8,FWCEICGRPFTQKGNLLRHIKL,0.221
9,FWCDQCGASFTQKGNLLRHIKL,-1.34
10,FDCDVCGADFTQKGNLLRHIKL,-0.894
11,FACEVCGAAFTQKGNLLRHIKL,-1.67
12,FYCPICGHEFTQKGNLLRHIKL,-0.225
13,FQCNQCGARFTQKGNLLRHIKL,-0.154
14,FNCDQCGAPFTQKGNLLRHIKL,-1.73
15,FICDICGAMFTQKGNLLRHIKL,-1.17
16,FRCDVCGAIFTQKGNLLRHIKL,-0.778
17,FCCPICGHSFTQKGNLLRHIKL,-0.384
18,FQCDQCGATFTQKGNLLRHIKL,-1.9
19,FWCPICGHMFTQKGNLLRHIKL,2.02
20,FKCEICGRTFTQKGNLLRHIKL,-1.27
21,LCCPICGFVCTQKGNLLRHIKL,1.2
22,FVCEICGHHFTQKGNLLRHIKL,-2.51
23,FLCEICGHGFTQKGNLLRHIKL,-2.58
24,FECDVCGATFTQKGNLLRHIKL,-1.11
25,FICNQCGAHFTQKGNLLRHIKL,-0.239

row,Sequence,log2 fold change of degron read counts
1,FVCPQCGAPFTQKGNLLRHIKL,0.102
2,FRCDICGAIFTQKGNLLRHIKL,-0.612
3,FICNQCGRYFTQKGNLLRHIKL,0.844
4,FKCPQCGAKFTQKGNLLRHIKL,-1.23
5,FCCPICGADFTQKGNLLRHIKL,-0.0683
6,FLCNQCGARFTQKGNLLRHIKL,-0.664
7,FWCNQCGAHFTQKGNLLRHIKL,0.895
8,FECPICGRHFTQKGNLLRHIKL,-0.581
9,FFCEICGADFTQKGNLLRHIKL,-1.88
10,FTCNICGALFTQKGNLLRHIKL,-0.433
11,FQCPICGAFFTQKGNLLRHIKL,0.00788
12,LLCEICGFICTQKGNLLRHIKL,1.49
13,FHCNQCGAPFTQKGNLLRHIKL,-0.308
14,LTCPICGFDCTQKGNLLRHIKL,0.221
15,FICNQCGHGFTQKGNLLRHIKL,-1.2
16,FDCDICGASFTQKGNLLRHIKL,-2.18
17,FYCNICGAVFTQKGNLLRHIKL,0.238
18,FWCPICGHFFTQKGNLLRHIKL,2.15
19,FFCNICGAQFTQKGNLLRHIKL,-0.0495
20,FLCNVCGAAFTQKGNLLRHIKL,-1.34
21,FMCNQCGAGFTQKGNLLRHIKL,-0.974
22,FRCNQCGAMFTQKGNLLRHIKL,-0.376
23,FECEICGHLFTQKGNLLRHIKL,-1.65
24,FKCDICGALFTQKGNLLRHIKL,-1.35
25,FECPVCGADFTQKGNLLRHIKL,-0.926
